# The supplement of paper PMC12645437, “Orthogonal IMiD-Degron Pairs Induce Selective Protein Degradation in Cells” (ACS Chemical Biology, 2025)
# The other results are listed elsewhere or left out.
# B1: Q9UKT9 (peptide)
# chain: FWCPVCGAMFTQKGNLLRHIKL
# B2: Q9UKT9 (peptide)
# chain: FGCEICGRLFTQKGNLLRHIKL
# B3: Q9UKT9 (peptide)
# chain: FICDQCGARFTQKGNLLRHIKL
# B4: Q9UKT9 (peptide)
# chain: FACEVCGAYFTQKGNLLRHIKL
# B5: Q9UKT9 (peptide)
# chain: LYCNQCGFVCTQKGNLLRHIKL
# B6: Q9UKT9 (peptide)
# chain: FHCNQCGRWFTQKGNLLRHIKL
# B7: Q9UKT9 (peptide)
# chain: FRCEICGRMFTQKGNLLRHIKL
# B8: Q9UKT9 (peptide)
# chain: FVCNQCGHVFTQKGNLLRHIKL
# B9: Q9UKT9 (peptide)
# chain: FQCDQCGAGFTQKGNLLRHIKL
# B10: Q9UKT9 (peptide)
# chain: FMCNQCGHTFTQKGNLLRHIKL
# B11: Q9UKT9 (peptide)
# chain: FFCEICGACFTQKGNLLRHIKL
# B12: Q9UKT9 (peptide)
# chain: FHCEICGACFTQKGNLLRHIKL
# B13: Q9UKT9 (peptide)
# chain: FWCNQCGASFTQKGNLLRHIKL
# B14: Q9UKT9 (peptide)
# chain: FQCPICGRHFTQKGNLLRHIKL
# B15: Q9UKT9 (peptide)
# chain: LCCPICGFQCTQKGNLLRHIKL
# B16: Q9UKT9 (peptide)
# chain: FGCPICGRGFTQKGNLLRHIKL
# B17: Q9UKT9 (peptide)
# chain: FGCDQCGACFTQKGNLLRHIKL
# B18: Q9UKT9 (peptide)
# chain: FDCNICGACFTQKGNLLRHIKL
# B19: Q9UKT9 (peptide)
# chain: FLCEQCGAKFTQKGNLLRHIKL
# B20: Q9UKT9 (peptide)
# chain: FLCDICGAYFTQKGNLLRHIKL
# B21: Q9UKT9 (peptide)
# chain: FYCEICGRMFTQKGNLLRHIKL
# B22: Q9UKT9 (peptide)
# chain: FRCDVCGAWFTQKGNLLRHIKL
# B23: Q9UKT9 (peptide)
# chain: FECEICGAFFTQKGNLLRHIKL
# B24: Q9UKT9 (peptide)
# chain: FCCPICGAEFTQKGNLLRHIKL
# B25: Q9UKT9 (peptide)
# chain: FGCDQCGAPFTQKGNLLRHIKL
# B26: Q9UKT9 (peptide)
# chain: FFCPICGASFTQKGNLLRHIKL
# B27: Q9UKT9 (peptide)
# chain: FLCNQCGHDFTQKGNLLRHIKL
# B28: Q9UKT9 (peptide)
# chain: FKCPICGHDFTQKGNLLRHIKL
# B29: Q9UKT9 (peptide)
# chain: FVCDVCGAQFTQKGNLLRHIKL
# B30: Q9UKT9 (peptide)
# chain: FLCEVCGAAFTQKGNLLRHIKL
# B31: Q9UKT9 (peptide)
# chain: FCCPICGHYFTQKGNLLRHIKL
# B32: Q9UKT9 (peptide)
# chain: FVCDICGAGFTQKGNLLRHIKL
# B33: Q9UKT9 (peptide)
# chain: FLCNQCGAQFTQKGNLLRHIKL
# B34: Q9UKT9 (peptide)
# chain: FCCNQCGRIFTQKGNLLRHIKL
# B35: Q9UKT9 (peptide)
# chain: FVCPICGHQFTQKGNLLRHIKL
# B36: Q9UKT9 (peptide)
# chain: FYCDVCGAIFTQKGNLLRHIKL
# B37: Q9UKT9 (peptide)
# chain: FSCPVCGAFFTQKGNLLRHIKL
# B38: Q9UKT9 (peptide)
# chain: LHCEICGFCCTQKGNLLRHIKL
# B39: Q9UKT9 (peptide)
# chain: FRCEICGHPFTQKGNLLRHIKL
# B40: Q9UKT9 (peptide)
# chain: FCCNQCGAHFTQKGNLLRHIKL
# B41: Q9UKT9 (peptide)
# chain: LACNQCGFFCTQKGNLLRHIKL
# B42: Q9UKT9 (peptide)
# chain: LQCEICGFWCTQKGNLLRHIKL
# B43: Q9UKT9 (peptide)
# chain: FKCNQCGASFTQKGNLLRHIKL
# B44: Q9UKT9 (peptide)
# chain: FRCEICGAWFTQKGNLLRHIKL
# B45: Q9UKT9 (peptide)
# chain: FQCEQCGAAFTQKGNLLRHIKL
# B46: Q9UKT9 (peptide)
# chain: FMCPVCGAFFTQKGNLLRHIKL
# B47: Q9UKT9 (peptide)
# chain: FWCPICGHQFTQKGNLLRHIKL
# B48: Q9UKT9 (peptide)
# chain: FSCNQCGHTFTQKGNLLRHIKL
# B49: Q9UKT9 (peptide)
# chain: FCCNVCGAEFTQKGNLLRHIKL
# B50: Q9UKT9 (peptide)
# chain: FECNVCGADFTQKGNLLRHIKL
# Biological target: no compound (DMSO)
# Test: log2 fold change of degron read counts, EGFP-low vs EGFP+ sorted cells; higher = lower degron-EGFP level without compound (poor expression or instability)
# Details: compound: DMSO control; 18 h
# 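Note: jurkat cells carrying a lentiviral library of mutant zinc finger degrons fused to EGFP plus mCherry, mCherry+ cells FACS sorted, degron abundance counted by next-generation sequencing.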
row,Sequence,log2 fold change of degron read counts
1,B1,1.05
2,B2,-0.269
3,B3,-1.06
4,B4,-0.198
5,B5,1.16
6,B6,0.667
7,B7,-0.231
8,B8,-0.877
9,B9,-2.32
10,B10,-0.117
11,B11,-0.305
12,B12,-1.42
13,B13,-0.114
14,B14,0.273
15,B15,0.282
16,B16,0.0725
17,B17,-1.61
18,B18,-0.718
19,B19,-1.47
20,B20,-0.101
21,B21,-0.424
22,B22,-0.332
23,B23,-0.878
24,B24,-0.715
25,B25,-1.02

row,Sequence,log2 fold change of degron read counts
1,B26,0.0443
2,B27,-1.87
3,B28,-1.35
4,B29,-1.38
5,B30,-1.88
6,B31,0.432
7,B32,-2.07
8,B33,-0.993
9,B34,0.69
10,B35,-0.946
11,B36,-0.902
12,B37,0.631
13,B38,0.208
14,B39,-0.512
15,B40,-0.453
16,B41,1.36
17,B42,-0.127
18,B43,-0.752
19,B44,0.103
20,B45,-1.9
21,B46,0.432
22,B47,0.799
23,B48,-0.185
24,B49,-1.57
25,B50,-1.2
